The results in this text go back to US9724426B2, “Agents, uses and methods” (AFFINICON APS, priority 2009, dated 2017).

Experiment [1] deals with recombinant CD163 immobilized on a Biacore chip (Homo sapiens, UniProt Q86VB7). Description: Surface plasmon resonance (Biacore) analysis of mAb binding to immobilized CD163. The settings on record: 5 μg/ml. As to the method: SPR analysis of the binding of mAbs to CD163 was carried out on a Biacore 2000 instrument (Biacore, Uppsala, Sweden). The Biacore sensor chips (type CM5) were activated with a 1:1 mixture of 0.2 M N-ethyl-N′-(3-dimethylaminopropyl) carbodiimide and 0.05 M N-hydroxysuccimide in water. Purified recombinant CD163 were immobilized in 10 mM sodium acetate, pH 4.0, and the remaining binding sites were blocked with 1 M ethanolamine, pH 8.5. The SPR signal generated from immobilized recombinant CD163 proteins corresponded to 40-70 fmol of protein/mm^2. Sensorgrams were generated using mAb concentrations ranging from 5-100 nM. The flow cells were regenerated with 1.6 M glycine-HCl, pH 3. The running buffer used for the experiment was either CaHBS 10 mM Hepes, 150 mM NaCl, 3.0 mM CaCl2, 1.0 mM EGTA, and 0.005% Tween 20, pH 7.4. or 10 mM Hepes, 150 mM NaCl, 3.0 mM EDTA, and 0.005% Tween 20, pH 7.4, mAb samples were dissolved in the same buffer as the running buffer used. All binding data were analyzed using the Biamolecular Interaction Analysis evaluation program version 3.1.
Chain of recombinant CD163 immobilized on a Biacore chip (Q86VB7 42-1156): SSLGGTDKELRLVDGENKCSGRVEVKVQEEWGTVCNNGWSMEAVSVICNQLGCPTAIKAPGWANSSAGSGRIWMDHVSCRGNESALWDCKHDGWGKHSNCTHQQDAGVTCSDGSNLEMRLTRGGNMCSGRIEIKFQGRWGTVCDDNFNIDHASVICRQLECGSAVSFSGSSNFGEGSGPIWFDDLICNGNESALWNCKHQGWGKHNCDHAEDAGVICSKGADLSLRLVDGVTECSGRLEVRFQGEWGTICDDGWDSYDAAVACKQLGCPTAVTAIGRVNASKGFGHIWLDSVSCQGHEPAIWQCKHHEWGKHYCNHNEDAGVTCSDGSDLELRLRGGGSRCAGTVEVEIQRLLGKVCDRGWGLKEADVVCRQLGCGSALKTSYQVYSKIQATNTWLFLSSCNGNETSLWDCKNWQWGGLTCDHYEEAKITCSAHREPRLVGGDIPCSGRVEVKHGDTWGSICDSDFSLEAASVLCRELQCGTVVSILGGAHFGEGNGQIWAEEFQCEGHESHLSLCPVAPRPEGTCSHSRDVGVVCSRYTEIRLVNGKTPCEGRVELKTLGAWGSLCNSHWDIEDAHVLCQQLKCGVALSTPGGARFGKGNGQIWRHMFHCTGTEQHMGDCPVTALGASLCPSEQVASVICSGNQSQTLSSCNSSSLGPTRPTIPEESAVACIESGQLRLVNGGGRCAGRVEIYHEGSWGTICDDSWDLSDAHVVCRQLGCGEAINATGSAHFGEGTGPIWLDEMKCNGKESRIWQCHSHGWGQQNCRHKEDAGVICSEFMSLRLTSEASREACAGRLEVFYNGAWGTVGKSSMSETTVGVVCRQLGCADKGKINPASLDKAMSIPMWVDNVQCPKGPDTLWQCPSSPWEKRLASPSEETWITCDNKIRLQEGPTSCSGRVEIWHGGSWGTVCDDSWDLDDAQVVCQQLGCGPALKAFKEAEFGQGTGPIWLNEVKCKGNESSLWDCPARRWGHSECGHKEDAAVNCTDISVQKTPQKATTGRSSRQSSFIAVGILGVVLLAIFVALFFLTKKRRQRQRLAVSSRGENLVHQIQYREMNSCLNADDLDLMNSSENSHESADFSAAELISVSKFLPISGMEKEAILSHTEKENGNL
SPR analysis of the binding of mAbs to CD163 was carried out on a Biacore 2000 instrument (Biacore, Uppsala, Sweden). […] All binding data were analyzed using the Biamolecular Interaction Analysis evaluation program version 3.1.

For experiment [2], the target named is T1, CD163 on CD14 positive monocytes (Homo sapiens, UniProt Q86VB7).
T1 construct: endogenous in cells; host or cells: human peripheral blood monocytes, monocyte-derived macrophages, blood dendritic cells
T1 sequence (Q86VB7 42-1156): as above
Description: Flow cytometry, binding of KN2/NRY to human monocytes. Format: cell-based. As to the method:
The cell suspensions were washed in PBS pH 7.4 (0.1% NaN3) and the cell density adjusted to 3-5×10^6/ml. The cells were incubated at 0.3-0.5×10^6/ml with primary mAb (0.1-0.5 μg) in 100 μl PBS pH 7.4 (0.1% NaN3 and 2% FBS) for one hour at 4° C. Subsequently, the cells were washed in PBS (0.1% NaN3) and incubated with secondary Ab (anti-mouse IgG-FITC or anti-human IgG-FITC (both AbD-Serotec Dusseldorf, Germany)) for 30 min at 4° C. The stained cells were washed twice in PBS pH 7.4 (0.1% NaN3 and 2 FBS) by centrifugation at 1200 rpm for 5 min, 4° C. before analysis on a FACSCalibur (BD Biosciences, New Jersey, USA). The data were further analyzed using the FlowJo7 software package (Tri Star, Origon, USA).
(Flow cytometry measures light scatter and fluorescence of single cells or particles in a stream.)

Experiment [3] addresses T2, human CD163 VKVQEE→LKIHEK and double mutant (Homo sapiens, UniProt Q86VB7, E71K/Q69H/R112D/V66L/V68I).
T2 construct: a pcDNA5-FRT-humanCD163 plasmid harboring the full length human CD163 cDNA; expressed in transfected cells; host or cells: HEK 293 cells (transient)
Nature of the experiment: Western blotting of human CD163 LKIHEK containing mutants. Format: binding. As to the method:
Each cell pellet was added 1 ml lysis buffer (10 mM Tris pH 8, 140 mM NaCl, 15 mM MgSO4 1% Triton X-100) and incubated for 15 min at 4 °C with rotation. After centrifugation for 30 min at 6000 rpm the supernatants were sterile filtered.
90 μl of each of the supernatants were added 30 μl of 4×LDS sample buffer. 3×20 μl samples of each supernatant and 8 μl SeeBlue plus2 prestained marker were loaded on NuPage 4-12% Bis-Tris-Gels (Invitrogen, Taastrup, Denmark) and the SDS-PAGEs were run with MOPS running buffer according to instructions of the manufacturer (200 V constant for 50 min). Blotting to PVDF membranes (Invitrogen, Taastrup, Denmark) was done on an iBLOT device according to instructions of the manufacturer. After blotting the membranes were washed briefly in 1×PBS 0.1% Tween and blocked for 30 min in 1×PBS 2% Tween at room temperature with shaking. After blocking the membranes were washed 3×5 min in 1×PBS 0.1% Tween and incubated 1 hour with: (1) 10 ml 1 μg/ml polyclonal rabbit anti-human CD163; (2) 10 ml 1 μg/ml Mac2-158; (3) 10 ml 1:500 KN2/NRY-HRP all diluted in 1×PBS 0.1% Tween. The membranes were washed with 3×5 min 1×PBS 0.1% Tween again and incubated with: (1) 10 ml Goat anti-rabbit-HRP 1:1000 (AbD Serotec, Oxford, UK); or (2) 10 ml Goat anti-mouse-HRP 1:1000 (Dako, Glostrup, Denmark) for 1 hour. […]
(In general: Immunoblotting shows a protein as a band on a membrane.)

T2 sequence (Q86VB7 42-1156 V66L/V68I/Q69H/E71K/R112D): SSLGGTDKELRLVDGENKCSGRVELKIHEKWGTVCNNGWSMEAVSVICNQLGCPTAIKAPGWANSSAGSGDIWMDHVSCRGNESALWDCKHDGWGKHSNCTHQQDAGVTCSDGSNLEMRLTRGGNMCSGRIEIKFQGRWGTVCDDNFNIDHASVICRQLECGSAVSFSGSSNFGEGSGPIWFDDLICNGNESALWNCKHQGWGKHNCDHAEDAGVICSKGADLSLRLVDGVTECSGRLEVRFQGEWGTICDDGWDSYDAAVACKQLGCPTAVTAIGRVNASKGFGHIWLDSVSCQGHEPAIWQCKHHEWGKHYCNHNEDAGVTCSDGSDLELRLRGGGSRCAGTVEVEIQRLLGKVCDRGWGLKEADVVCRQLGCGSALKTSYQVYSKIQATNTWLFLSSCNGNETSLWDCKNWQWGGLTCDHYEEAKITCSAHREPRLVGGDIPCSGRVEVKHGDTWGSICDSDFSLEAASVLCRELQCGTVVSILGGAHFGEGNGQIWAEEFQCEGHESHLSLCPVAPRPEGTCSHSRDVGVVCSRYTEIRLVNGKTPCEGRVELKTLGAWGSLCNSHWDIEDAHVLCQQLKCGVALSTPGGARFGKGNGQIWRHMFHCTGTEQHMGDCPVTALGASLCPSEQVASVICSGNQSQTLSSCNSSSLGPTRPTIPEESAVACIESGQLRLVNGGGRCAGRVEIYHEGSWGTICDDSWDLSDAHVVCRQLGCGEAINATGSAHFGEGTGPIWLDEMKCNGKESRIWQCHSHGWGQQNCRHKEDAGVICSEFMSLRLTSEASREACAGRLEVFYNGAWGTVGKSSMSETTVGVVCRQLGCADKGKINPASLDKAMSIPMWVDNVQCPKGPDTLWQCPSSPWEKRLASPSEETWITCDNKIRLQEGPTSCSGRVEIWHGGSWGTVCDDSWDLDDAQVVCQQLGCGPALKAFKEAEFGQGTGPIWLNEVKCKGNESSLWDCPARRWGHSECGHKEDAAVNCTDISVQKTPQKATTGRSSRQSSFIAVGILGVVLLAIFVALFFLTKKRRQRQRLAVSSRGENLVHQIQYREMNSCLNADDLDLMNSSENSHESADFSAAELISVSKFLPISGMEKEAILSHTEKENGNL

B1: KN2/NRY: humanized IgG4 CD163 antibody, heavy chain gamma KN2 and light chain kappa NRY (antibody)
heavy: QVQLQESGPGLVKPSETLSLTCTVSGYSITSDYAWNWIRQFPGNKLEWMGYITYSGSTYYNPSLKSRVTISVDTSKNQFSLKLSSVTAADTATYYCVSGTYYFDYWGQGTTLTVSSASTKGPSVFPLAPCSRSTSESTAALGCLVKDYFPEPVTVSWNSGALTSGVHTFPAVLQSSGLYSLSSVVTVPSSSLGTKTYTCNVDHKPSNTKVDKRV[human IgG4 Fc not given here]
light: DIVMTQSPSSLSASVGDRVTITCRASQSVSSDVAWFQQKPGKSPKPLIYYASNRYSGVPSRFSGSGSGTDFTLTISSLQAEDFAVYFCGQDYTSPRTFGGGTKLEIKRTVAAPSVFIFPPSDEQLKSGTASVVCLLNNFYPREAKVQWKVDNALQSGNSQESVTEQDSKDSTYSLSSTLTLSKADYEKHKVYACEVTHQGLSSPVTKSFNRGEC
For B1, in experiment [1], the “affinity for human CD163, KN2/NRY compared with Mac2-158” value was “Virtually similar affinities”. For the same molecule, the “binding to CD14 positive monocytes” value in experiment [2] is recorded as “specific binding”.

B2: KN2/NRY-HRP: HRP conjugated to KN2/NRY by periodate oxidation (conjugate)
heavy: QVQLQESGPGLVKPSETLSLTCTVSGYSITSDYAWNWIRQFPGNKLEWMGYITYSGSTYYNPSLKSRVTISVDTSKNQFSLKLSSVTAADTATYYCVSGTYYFDYWGQGTTLTVSSASTKGPSVFPLAPCSRSTSESTAALGCLVKDYFPEPVTVSWNSGALTSGVHTFPAVLQSSGLYSLSSVVTVPSSSLGTKTYTCNVDHKPSNTKVDKRV[human IgG4 Fc not given here]
light: DIVMTQSPSSLSASVGDRVTITCRASQSVSSDVAWFQQKPGKSPKPLIYYASNRYSGVPSRFSGSGSGTDFTLTISSLQAEDFAVYFCGQDYTSPRTFGGGTKLEIKRTVAAPSVFIFPPSDEQLKSGTASVVCLLNNFYPREAKVQWKVDNALQSGNSQESVTEQDSKDSTYSLSSTLTLSKADYEKHKVYACEVTHQGLSSPVTKSFNRGEC
As for B2, the “binding in western blot” value in experiment [3] is on record as “only binding to the human CD163 wt”.
